Results reported in PubChem BioAssay AID2451 (National Center for Advancing Translational Sciences (NCATS), 2010).
The campaign covered roughly 290,000 compounds. About 2,100 (0.72%) were called active. Not shown: some 4% with an inconclusive outcome. Calls come from the whole dose curve; as a rule, active = well fitted inhibition curve with a large enough effect; inconclusive = small, poorly fitted or top-dose-only effect, or effect the other way; inactive = flat fitted curve, though single readings scatter. The list shows a part of the results, in another mix than the full data. Some compounds were tested as several samples or in several runs, with calls that do not always agree.

target: Fructose-bisphosphate aldolase (Giardia intestinalis (strain ATCC 50803 / WB clone C6)) (UniProt A8B2U2); test: qHTS Assay for Inhibitors of Fructose-1,6-bisphosphate Aldolase from Giardia Lamblia; conditions: purified Giardia FBPA; series mostly up to 59.6 µM; activity, negative = inhibition: at the top concentration; note: nearly all actives have a fitted effect of over 55% in size
Sequence of UniProt A8B2U2 (A8B2U2 whole entry, looked up): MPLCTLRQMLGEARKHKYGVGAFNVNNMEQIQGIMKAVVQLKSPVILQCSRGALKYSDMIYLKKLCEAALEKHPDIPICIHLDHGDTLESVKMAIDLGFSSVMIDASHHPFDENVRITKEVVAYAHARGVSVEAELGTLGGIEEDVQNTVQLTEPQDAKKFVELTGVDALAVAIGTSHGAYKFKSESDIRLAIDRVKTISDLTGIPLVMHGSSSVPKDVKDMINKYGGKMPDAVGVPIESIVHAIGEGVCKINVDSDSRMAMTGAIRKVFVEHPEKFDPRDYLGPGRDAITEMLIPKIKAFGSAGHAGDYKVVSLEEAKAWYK
Text: Assay Provider: Osnat Herzberg, University of Maryland
The objective of this project is to obtain compounds that inhibit Giardia lamblia growth. G. lamblia is a human pathogen which afflicts impoverished nations; it is the most common cause of outbreaks of diarrhea in the United States. During the course of our study of potential drug targets in Giardia, we have identified the Class II (Zn2+ functions in electrophilic catalysis) fructose-1,6-bisphosphate aldolase (FBPA) as an excellent candidate for drug targeting. FBPA is a key glycolytic pathway enzyme, essential for G. lamblia survival. The human FBPA belongs to the Class I aldolases, which have a different substrate binding site structure and a radically different catalytic mechanism (employing a lysine-Schiff base intermediate). Therefore, affinity-based or mechanism-based inhibitors of the Giardia FBPA are expected not to interfere with the catalytic function of the human FBPA.
A glyceraldehyde-3-phosphate dehydrogenase/triose phosphate isomerase/NAD/arsenate coupled assay was adapted to the 1536-well HTP format for use in the primary screen. This was done by coupling it to a diaphorase/resazurin/resorufin reaction that can be monitored by fluorescence (excitation, 544 nm; emission, 590 nm). Compounds identified in this screen will be further evaluated by coupling the glycerol-3-phosphate/triose phosphate isomerase/NADH assay to a phenazine methosulfate/tetranitroblue tetrazolium color reaction. False positives due to the dehydrogenases and diaphorase inhibition will be eliminated, and selectivity assay will triage inhibitors of mammalian triose phosphate isomerase and the Class I FBPA. G. lamblia FBPA inhibitors identified by the in vitro analyses will be examined for growth inhibition of Giardia trophozoites, and for cytotoxicity in human cells.
Step,Parameter,Value,Description
1,Enzyme reagent,2 uL,40 nM FBPA
2,Compound,23 nL,3.68 nM-57.5 uM final concentration
3,Time,10 min,RT Incubation
4,Substrate/detection Reagent,2 uL,Substrate + enzyme coupling system + AmpLite Red kit
5,Time,20 min,RT Incubation
6,Detector,525 nm/598 nm (Fluorescence),ViewLux Fluorescence Read (Read 1)
1,Medium-binding black solid-bottom Kalypsys plates. FRD or Kalypsys dispenser, 2 uL of FBPA enzyme. Bottle kept at 4C.
2,Compound Library (10 mM ,1:5 dilution). Pin-transferred for a [final] range of 3.68 nM-57.5 uM.
4,FRD or Kalypsys dispenser, 2 uL of reaction mixture. Bottle kept at 4C and covered in foil to protect from light.
6,ViewLux Protocol 1194; Excitation filter wheel A (525/20 Pol; BODIPY TMR FP), Emission filter wheel B (598/25 S; BODIPY TMR FP S).
Keywords: Fructose-bisphosphate aldolase, FBPA , Giardia lamblia , Giardia, HTS, Inhibitors
% is set by controls: 0 for no effect and ±100 for the full control effect; potency is the fitted concentration of half-maximal effect.

Row | SMILES | Potency | activity, negative = inhibition
1 | NS(=O)(=O)c1cc2c(cc1Cl)NC(CSCc1ccccc1)=NS2(=O)=O | inactive | 
2 | c1ccc(-c2ccccn2)nc1 |  | inactive: -1.1%
3 | CCN(CC)C(=S)SSC(=S)N(CC)CC | inactive | 
4 | COc1cc2nc(N3CCN(C(=O)[C@@H]4CCCO4)CC3)nc(N)c2cc1OC |  | inactive: -8.52% [at 21.7 µM]
5 | O=c1c(O[C@@H]2O[C@H](CO)[C@@H](O)[C@H](O)[C@H]2O)c(-c2ccc(O)c(O)c2)oc2cc(O)cc(O)c12 |  | inactive: -19.5%
6 | CCCCC1=CC2=C(c3ccco3)C(=O)C(C)(OC(=O)c3ccc(OC)cc3)C(=O)C2=CN1CCN1CCOCC1 (centres undefined) |  | inactive: -23.7%
7 | CCCCC1=CC2=C(c3ccco3)C(=O)C(C)(OC(=O)c3ccc(OC)cc3)C(=O)C2=CN1C(CO)CO (centres undefined) |  | inactive: -19.5%
8 | O=C(O)CSc1cc(NS(=O)(=O)c2cccc([N+](=O)[O-])c2)c2ccccc2c1O | active: 2.51 µM | 
9 | Oc1cc2c(cc1O)CN(C(=S)NCCc1ccc(Cl)cc1)CCC2 |  | inactive: -17.6%
10 | C[C@H](NC(=O)c1nc[nH]c1C(=O)NCC(=O)OC(C)(C)C)c1ccccc1 |  | inactive: -29.8%
11 | Cc1coc2c1C(=O)C(=O)c1c-2ccc2c1CCCC2(C)C |  | inactive: -27.8%
12 | CCOC(=O)C1=C(C)NC2(O)c3ccccc3C(=O)C12O (centres undefined) |  | inactive: -22.5%
13 | CCC(C)[C@H](NC(=O)N1CC(=O)Nc2ccccc21)C(=O)N[C@@H](Cc1c[nH]c2ccccc12)C(=O)O (some centres undefined) |  | inactive: 4.32%
14 | O=C(O)c1ccc(N/N=C/c2ccncc2)cc1 | active: 3.98 µM | 
15 | CCCCN(C)S(=O)(=O)c1ccc(C(=O)Nc2nnc(C3=COCCO3)o2)cc1 | active: 17.7 µM | 
16 | CC[C@H]1CN2CCc3cc(OC)c(OC)cc3[C@@H]2C[C@@H]1C[C@H]1NCCc2cc(OC)c(OC)cc21 | inactive | 
17 | CNC(C)C(O)c1ccccc1 (centres undefined) |  | inactive: -6.01%
18 | O=C(Nc1nccs1)c1cn2ccccc2n1 | active: 14.1 µM | 
19 | CN1CCCN(Cc2ccc(Cl)cc2Cl)CC1 | active: 19.9 µM | 
20 | O=C(O)[C@@H]1C[C@@H](C(=O)O)N1 |  | inactive: -5.48%
21 | C=CCNCCCOc1ccc(Cl)cc1C(C)(C)C | active: 17.7 µM | 
22 | COC(=O)C1=C(C)NC(C)=C(C(=O)OC)C1c1ccccc1[N+](=O)[O-] | inactive | 

Row | SMILES | Potency | activity, negative = inhibition
23 | CNC(C)[C@H](O)c1ccccc1 (some centres undefined) |  | inactive: -0.941%
24 | CN(C)CCCOc1nn(Cc2ccccc2)c2ccccc12 |  | inactive: -1.94% [at 21.7 µM]
25 | O=C(/C=C\c1ccc(O)c(O)c1)O[C@@H](Cc1ccc(O)c(O)c1)C(=O)O |  | inactive: -29.1%
26 | COc1cc2nc(N3CCN(C(=O)C4CCCO4)CC3)nc(N)c2cc1OC (centres undefined) | inactive | 
27 | CCCCC1=CC2=CC(=O)C(C)(OC(=O)CC)C(=O)C2=CN1CCN1CCOCC1 (centres undefined) |  | inactive: -14.3% [at 12.9 µM]
28 | CCN(CC)Cc1cc(O)c(CN(CC)CC)cc1O | active: 5.61 µM | 
29 | CC[n+]1c(/C=C2\C=C(C)CC(C)C2)sc2ccccc21 (centres undefined) |  | inactive: -17%
30 | COc1cccc2c1C(=O)c1c(O)c3c(c(O)c1C2=O)C[C@@](O)(C(=O)CO)C[C@@H]3O[C@@H]1C[C@H](N)[C@H](O)[C@H](C)O1 |  | inactive: -26.4%
31 | Cc1nnc(N/N=C\c2ccc(-c3cccc(C(=O)O)c3)o2)n1N | active: 8.89 µM | 
32 | O=C(Cn1ccnc1)c1ccc(Cl)cc1 |  | inactive: -6.15%
33 | COc1cccc2c1C(=O)c1c(O)c3c(c(O)c1C2=O)C[C@](O)(C(C)=O)C[C@H]3O[C@@H]1C[C@H](N)[C@H](O)[C@H](C)O1 |  | inactive: -16.4% [at 21.7 µM]
34 | CS(=O)(=O)Nc1ccc([N+](=O)[O-])cc1Oc1ccccc1 | inactive | 
35 | Brc1cc2[nH]cnc2c2ccccc12 | active: 17.7 µM | 
36 | Cc1cccc(Nc2cc(Cl)nc(SCC(=O)O)n2)c1C | inactive | 
37 | Cn1cc(C2=C(c3ccc(Cl)cc3Cl)C(=O)NC2=O)c2ccccc21 | inactive | 
38 | O=C1CN(/N=C\c2ccc([N+](=O)[O-])o2)C(=O)N1 |  | inactive: -24% [at 21.7 µM]
39 | O=C(O)[C@H]1[C@H]2C[C@H]3c4[nH]c5ccccc5c4CCN3C[C@@H]2CC[C@@H]1O |  | inactive: -27.8%
40 | Cc1ncc(C[n+]2csc(CCO)c2C)c(N)n1 |  | inactive: -10.4% [at 21.7 µM]
41 | O=c1cc(-c2ccccc2)oc2c(O)c(O)ccc12 | active: 7.92 µM | 
42 | COC(=O)C1=C(C)NC(C)=C([N+](=O)[O-])C1c1ccccc1C(F)(F)F (centres undefined) | inactive | 
43 | COc1ccc2nc3c(cc2c1)Cc1ccccc1-3 | active: 17.7 µM | 
44 | CCN(CC)CCOC(=O)[C@@H](Cc1cccc2ccccc12)C[C@@H]1CCCO1 |  | inactive: -25.7% [at 21.7 µM]

Row | SMILES | Potency | activity, negative = inhibition
45 | CCCC1CC(C(=O)NC(C(C)Cl)C2OC(SC)C(O)C(O)C2O)N(C)C1 (centres undefined) |  | inactive: -28.5%
46 | CCOc1cccc(CNc2ccc(O)cc2)c1OCc1ccc(Cl)cc1Cl | active: 12.6 µM | 
47 | CN(CC(=O)Nc1ccccc1Br)Cc1nc2ccccc2c(=O)[nH]1 | active: 20 µM | 
48 | Cc1c(N=Nc2c(O)[nH]c(=O)[nH]c2=O)c(=O)n(-c2ccccc2)n1C | active: 15.8 µM | 
49 | Cc1c(Cl)cccc1Nc1ccccc1C(=O)O | inactive | 
50 | COC(=O)[C@H]1[C@H]2CC3c4[nH]c5ccccc5c4CCN3C[C@@H]2CC[C@@H]1O (some centres undefined) |  | inactive: -7.54%
51 | N#C/C(=C\c1ccc(O)c(O)c1)C(=O)Nc1ccccc1 |  | inactive: -25.8%
52 | CCCc1ncc(C[n+]2ccccc2C)c(N)n1 |  | inactive: -1.63% [at 21.7 µM]
53 | Oc1ccc(C2CNCCc3c2cc(O)c(O)c3Cl)cc1 (centres undefined) |  | inactive: -10.6%
54 | COc1ccc2c3c1OC1CC(O)C=CC31CCN(C)C2 (centres undefined) |  | inactive: -15.3%
55 | C=C(CC)C(=O)c1ccc(OCC(=O)O)c(Cl)c1Cl | inactive | 
56 | COc1ccccc1C1CC(=O)Oc2cc3c(cc21)OCO3 (centres undefined) | active: 39.7 µM | 
57 | Cc1cc(CC(=O)O)n(C)c1C(=O)c1ccc(Cl)cc1 | inactive | 
58 | O=c1cc(-c2ccc(O)c(O)c2)oc2cc(O[C@@H]3O[C@H](CO)[C@@H](O)[C@H](O)[C@H]3O)cc(O)c12 |  | inactive: -4.4%
59 | Cc1ccccc1N=Cc1cccc(O)c1O | active: 5.61 µM | 
60 | Cc1ccccc1NNC(=O)C(=O)NNc1ccccc1C | active: 15.8 µM | 
61 | CCN(CC(=O)NCc1ccc(F)cc1)C(=O)CN1CCN(c2ccc(OC)cc2)CC1 | active: 7.94 µM | 
62 | Cc1oc2c(c1C(=O)c1ccc(Cl)cc1)C(=O)C(=O)c1ccccc1-2 | active: 0.889 µM | 
63 | CC(/C=N/NC(=O)Cc1cccn1C)=C\c1ccco1 |  | inactive: -5.08%
64 | CN(C)c1ccc(C(=O)Nc2nnc(C3=COCCO3)o2)cc1 | active: 17.7 µM | 
